{"source": "PubChem BioAssay AID686978", "about": "(National Center for Advancing Translational Sciences (NCATS), 2013)", "note": "The campaign covered roughly 420,000 compounds. About 64,000 (15%) were called active. This list was built around the results that the source calls inconclusive (neither active nor inactive); the mix of calls is not that of the screen. The call rests on the fitted dose curve; in most records, active means well fitted inhibition curve with a large enough effect; inconclusive means small, poorly fitted or top-dose-only effect; inactive means flat fitted curve, though single readings scatter. Potencies of inconclusive entries are left out as doubtful fits. Potency means the concentration at half of the fitted maximal effect; tags describe the fitted curve by direction and shape."}
{"assay": "qHTS for Inhibitors of human tyrosyl-DNA phosphodiesterase 1 (TDP1): qHTS in cells in absence of CPT; further: nearly all actives have a fitted effect of over 55% in size", "conditions": "DT40 Tdp1-/- hTDP1 cells, no CPT, ATP luminescence, 48 h; series mostly up to 46.2 µM", "summary_of_the_method": "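Camptothecin absent (DMSO only). Human TDP1-complemented DT40 knockout cells, 400 cells/well, 37 °C for minimum 48 hr; ATP measured via CellTiter-Glo, 30 min dark incubation, luminescence.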"}
{"smiles": "O=[N+]([O-])c1cccc(S(=O)(=O)N/N=C/c2ccc(O)cc2)c1", "Potency": "inactive"}
{"smiles": "Cc1cccc(N2CCN(C(=O)C(NS(=O)(=O)c3cccs3)c3ccccc3)CC2)c1C", "note": "(stereo unspecified)", "Potency": "inconclusive [inhibitor, single point]"}
{"smiles": "O=C(NCc1cccnc1)C1CC(c2cccc(Br)c2)=NO1", "note": "(stereo unspecified)", "Potency": "inconclusive [inhibitor, single point]"}
{"smiles": "CC(C)CN(C(=O)COC(=O)c1cccc2ccccc12)c1c(N)n(Cc2ccccc2)c(=O)[nH]c1=O", "Potency": "active: 16.4 µM"}
{"smiles": "COc1ccc(-c2nc(CS(=O)CC(=O)NCc3ccc4c(c3)OCO4)c(C)o2)cc1", "note": "(stereo unspecified)", "Potency": "inconclusive [inhibitor, single point]"}
{"smiles": "CC(C)Cc1nnc(NC(=O)c2ccc3c(=O)n4c(nc3c2)CCC4)s1", "Potency": "inactive"}
{"smiles": "Cc1nc2cc(NCc3nc4ccccc4n3Cc3ccccc3)ccc2n1C", "Potency": "inconclusive [inhibitor, single point]"}
{"smiles": "Cc1ccc(NC(=O)CN(C)C(=O)CSc2nccn2C)cc1", "Potency": "inactive"}
{"smiles": "O=C(Nc1ccc(Oc2ccccc2)cc1)c1ccc(F)c(S(=O)(=O)N2CCN(c3ccccc3F)CC2)c1", "Potency": "active: 4.61 µM"}
{"smiles": "CC#CCN1c2ccccc2[C@]23C[C@@H](C(=O)OC)N(C(=O)NC(C)(C)C)C2=NC(C(=O)OC)=C(C(=O)OC)[C@H]13", "Potency": "inconclusive [inhibitor, single point]"}
{"smiles": "COc1ccc(C/C(N)=N/OC(=O)c2cccc([N+](=O)[O-])c2)cc1", "Potency": "inconclusive [inhibitor, single point]"}
{"smiles": "CCOc1ccc(C(=O)NC2C(=O)N3C(C(=O)O)=C(COC(C)=O)CSC23)cc1OCC", "note": "(stereo unspecified)", "Potency": "inconclusive [inhibitor, single point]"}
{"smiles": "O=C(Nc1ccccc1)N1CCCC2(CCN(S(=O)(=O)c3ccccc3)CC2)C1", "Potency": "inactive"}
{"smiles": "O=C(Cn1cnc2c(nnn2Cc2ccc(F)cc2)c1=O)N1CCN(c2ccccc2)CC1", "Potency": "inconclusive [inhibitor, partial curve, poor fit]"}
{"smiles": "Cc1cc(-c2ccnc(-n3ncc(C(=O)NCC4CCCO4)c3C3CC3)n2)c(C)s1", "note": "(stereo unspecified)", "Potency": "inconclusive [inhibitor, single point]"}
{"smiles": "Cc1nn(-c2ccccc2)c2c1c(C)c(CCC(=O)N1CCOCC1)c(=O)n2C", "Potency": "inconclusive [inhibitor, partial curve]"}
{"smiles": "Cc1cc(=O)oc2c(C)c3occc3cc12", "Potency": "inactive"}
{"smiles": "CN(c1ccccc1)S(=O)(=O)c1cccc(NC(=O)Nc2ccc(Cl)cc2C#N)c1", "Potency": "active: 23.1 µM"}
{"smiles": "Cc1ccccc1CN1CCc2c(OCC(=O)N3CCCCC3)cccc2C1=O", "Potency": "inconclusive [inhibitor, single point]"}
{"smiles": "COC(=O)c1ccccc1N(C)S(=O)(=O)c1cc2c3c(c1)CC(=O)N3CCC2", "Potency": "inconclusive [inhibitor, single point]"}
{"smiles": "CCOc1ccc(NC(=O)c2nc(SCC)ncc2Cl)cc1", "Potency": "inconclusive [inhibitor, partial curve]"}
{"smiles": "O=C(CSc1ccc(-c2ccc(F)cc2)nn1)NC1CCCCC1", "Potency": "inactive"}
{"smiles": "CCOC(=O)C(=NC(C)CC)NNc1cccc(C(F)(F)F)c1", "note": "(stereo unspecified)", "Potency": "inconclusive [inhibitor, partial curve]"}
{"smiles": "Cc1csc(OCC(=O)Nc2ccc(C)c(C)c2)n1", "Potency": "inactive"}
{"smiles": "COc1cccc(NC(=O)/C(C#N)=C/c2ccc(-c3ccc(C)cc3)o2)c1", "Potency": "inconclusive [inhibitor, single point]"}
{"smiles": "CC(C)Sc1nc2ccccc2c(=O)[nH]1", "Potency": "inactive"}
{"smiles": "COc1ccc(OC)c(NC(=O)CCCN2C(=S)NC(C)(C)CC2C)c1", "note": "(stereo unspecified)", "Potency": "inactive"}
{"smiles": "CC(C)CCNC(=O)C1CC(c2ccccc2C(F)(F)F)=NO1", "note": "(stereo unspecified)", "Potency": "inactive"}
{"smiles": "O=C(NCc1ccco1)c1ccccc1F", "Potency": "inconclusive [inhibitor, single point]"}
{"smiles": "Cc1c(C(=O)OC(C)C(C)C[N+](C)(C)C)oc2ccccc12", "note": "(stereo unspecified)", "Potency": "inconclusive [inhibitor, single point]"}
{"smiles": "Cc1ccccc1CN1CCN(CC(=O)NCc2ccccn2)C1=O", "Potency": "inactive"}
{"smiles": "CCOC(=O)N1CCN(CC(O)COCC2=CCC3CC2C3(C)C)CC1", "note": "(stereo unspecified)", "Potency": "inconclusive [inhibitor, single point]"}
{"smiles": "CCN(CC(=O)Nc1c(F)cccc1F)C(=O)Cc1c(C)nc2ccccc2c1C", "Potency": "inconclusive [inhibitor, single point]"}
{"smiles": "O=C(Cn1cc(S(=O)(=O)Cc2cccc(Cl)c2)c2ccccc21)NCc1ccccc1Cl", "Potency": "inconclusive [inhibitor, single point]"}
{"smiles": "Cc1nsc2nc3c(F)c(F)c(F)c(F)c3cc12", "Potency": "inconclusive [inhibitor, single point]"}
{"smiles": "O=C(c1cccs1)N1CCC(c2nc(-c3ccc(S(=O)(=O)N4CCOCC4)cc3)no2)CC1", "Potency": "active: 18.4 µM"}
{"smiles": "Cc1ccc(C)c(NC(=O)CN(C)C(=O)c2ccc3[nH]c4c(c3c2)CC(C)CC4)c1", "note": "(stereo unspecified)", "Potency": "inconclusive [inhibitor, single point]"}
{"smiles": "COc1cccc(-c2csc(N3CCN(C(=O)NC45CC6CC(CC(C6)C4)C5)CC3)n2)c1", "Potency": "active: 13 µM"}
{"smiles": "O=[N+]([O-])CC(c1ccccc1)c1c[nH]c2ccccc12", "note": "(stereo unspecified)", "Potency": "active: 5.8 µM"}
{"smiles": "O=C(CCCSc1nnnn1-c1cccc2ccccc12)c1ccc(F)cc1", "Potency": "active: 20.6 µM"}
{"smiles": "COC(CNC(=O)CN1CCN(Cc2ccc(F)cc2Cl)C1=O)OC", "Potency": "inactive"}
{"smiles": "COc1ccc(/C(C)=N/OCC(=O)N2CC3(C)CC2CC(C)(C)C3)cc1", "note": "(stereo unspecified)", "Potency": "inconclusive [inhibitor, single point]"}
{"smiles": "Cc1ccc(S(=O)(=O)Nc2cccc(-c3ccc(N4CCCC4)nn3)c2)c(C)c1", "Potency": "inconclusive [inhibitor, partial curve, poor fit]"}
{"smiles": "COc1ccc(C2OC(CCc3ccccc3)Cc3[nH]c(=S)[nH]c(=O)c32)cc1", "note": "(stereo unspecified)", "Potency": "active: 18.4 µM"}
{"smiles": "CCOc1c(Cl)cc(/C=C/C(=O)N(CC)CC(=O)Nc2ccc(NC(C)=O)cc2)cc1OC", "Potency": "inconclusive [inhibitor, single point]"}
{"smiles": "CCn1c(N)c(C(=O)NCC2CCCO2)sc1=S", "note": "(stereo unspecified)", "Potency": "inconclusive [inhibitor, single point]"}
{"smiles": "COc1cccc(C(=O)CSc2nnc(-c3cc(OC)c(OC)c(OC)c3)o2)c1", "Potency": "active: 20.6 µM"}
{"smiles": "CCn1cc(C(=O)N2CCN(c3cccc(C)c3)C(C)C2)c(=O)c2cc(S(=O)(=O)N3CCOCC3)ccc21", "note": "(stereo unspecified)", "Potency": "inconclusive [inhibitor, single point]"}
{"smiles": "CC(C1CC1)N(Cc1ccccc1)C(=S)Nc1ccccc1", "note": "(stereo unspecified)", "Potency": "active: 23.1 µM"}
{"smiles": "COc1ccc2cc3cc(C(=O)NCCN4CCN(c5ccccc5F)CC4)oc3nc2c1", "Potency": "active: 16.4 µM"}
{"smiles": "COc1ccc(NC(=O)Nc2cc(F)ccc2C)cc1", "Potency": "inconclusive [inhibitor, partial curve]"}
{"smiles": "Cc1ccc(-c2nn(-c3ccccc3)cc2C(=O)N2CCN(c3ccccn3)CC2)cc1", "Potency": "active: 29.1 µM"}
{"smiles": "CCOC(=O)/C(=C/C=C1\\Sc2ccccc2N1CC)C(C)=O", "Potency": "active: 20.6 µM"}
{"smiles": "CCC(C)Sc1ccc([C@@H]2[C@H]3C(=O)N(CC)C(=O)[C@H]3[C@]3(C(=O)OC)CCCCN23)cc1", "note": "(stereo partly specified)", "Potency": "active: 16.4 µM"}
{"smiles": "O=C(CSc1nnc(CNC(=O)c2c(F)cccc2F)o1)NCCc1ccccc1", "Potency": "inactive"}
{"smiles": "O=C(Cc1coc2ccc3ccccc3c12)N1CCN(c2ncccn2)CC1", "Potency": "inconclusive [inhibitor, single point]"}
{"smiles": "Cc1cc(O)cc(O)c1-c1onc(C(F)(F)F)c1-c1cscn1", "Potency": "active: 10.3 µM"}
{"smiles": "CCCN1CCN(CCCNC(=O)c2cc3c(s2)-c2ccccc2OC3)CC1", "Potency": "inconclusive [inhibitor, single point]"}
{"smiles": "O=C(CN(Cc1ccc(Cl)c(Cl)c1)S(=O)(=O)c1ccccc1)N/N=C\\c1ccc2c(c1)OCO2", "Potency": "inconclusive [inhibitor, single point]"}
{"smiles": "Nc1nc(-c2cccnc2)nn1S(=O)(=O)c1ccccc1", "Potency": "inactive"}
{"smiles": "Cc1coc2c(C)c3oc(=O)c(CCC(=O)N4CCCCC4)c(C)c3cc12", "Potency": "active: 16.4 µM"}
{"smiles": "CC(C)(C)NC(=O)c1cccc(NC(=O)c2cccc(O)c2)c1", "Potency": "inactive"}
{"smiles": "CCOCCCNC(=S)N1CCC(C(=O)c2ccc3c(c2)OCCO3)CC1", "Potency": "inactive"}
{"smiles": "O=C(Nc1ccc(-c2nc3ncccc3o2)cc1)c1ccc(Br)o1", "Potency": "inconclusive [inhibitor, partial curve]"}
{"smiles": "COc1cccc(CNS(=O)(=O)c2cc(-c3cc(C)no3)ccc2C(C)C)c1", "Potency": "inconclusive [inhibitor, single point]"}
{"smiles": "Cc1nc2c(c(C)c1CCC(=O)Nc1ccc(F)cc1)c(=O)n(C)c(=O)n2C", "Potency": "active: 13 µM"}
{"smiles": "COc1cccc(OCc2cc(/C=N/NC(=O)c3nc(Cl)c(Cl)c(N)c3Cl)ccc2OC)c1", "Potency": "inconclusive [inhibitor, single point]"}
{"smiles": "S=C(Nc1ccc2cn[nH]c2c1)Nc1ccccc1Cl", "Potency": "inconclusive [inhibitor, partial curve]"}
{"smiles": "CCCC(C(=O)NC1CCCC1)N(Cc1ccccc1Cl)C(=O)c1snc(C(N)=O)c1N", "note": "(stereo unspecified)", "Potency": "inactive"}
{"smiles": "CCCCNC(=O)C[C@@H]1C[C@@]2(C(=O)OCC)CCC=C2N(Cc2ccc3c(c2)OCO3)C1=O", "Potency": "inconclusive [inhibitor, single point]"}
{"smiles": "COc1ccc(NS(=O)(=O)c2cccc(C(=O)N/N=C/c3ccccc3OC)c2)cc1", "Potency": "inconclusive [inhibitor, single point]"}
